Measurements taken from patent publication US20120316107A1 (CASE WESTERN RESERVE UNIVERSITY, published 2012).

What was measured:
[1] = biological target: T1, Insulin-like Growth Factor receptor; test: competitive displacement of 125I-IGF-1 from IGFR
T1 construct: Captured on antibody-coated microtiter plates; the construct is not described; also called IGFR; IGF Type I receptor

[2] = biological target: T1, Insulin-like Growth Factor receptor; test: competitive displacement of 125I-IGF-1 from IGFR; remark: listed apart in the source
[3] = biological target: B isoform specific human insulin receptor (human); test: competitive displacement of labelled ligand, receptor captured on anti-FLAG IgG plate, two-site sequential model
[4] = biological target: T2, A isoform specific human insulin receptor (human); test: as above
T2 construct: the construct is not described; also called HIRA; human insulin receptor isoform A

[5] = biological target: T1, Insulin-like Growth Factor receptor; test: as above

| affinity relative to unmodified human insulin [1] [times] | Kd [2] [nM] | Relative Affinity (to IGF-1) [2] | Kd [3] [nM] | Relative Affinity (to human insulin) [3] | Kd [4] [nM] | Relative Affinity (to human insulin) [4] | Kd [5] [nM] | Relative Affinity (to human insulin) [5] | Binder |
| --- | --- | --- | --- | --- | --- | --- | --- | --- | --- |
| 2 to 3 | 3.14 | 0.015 |  |  |  |  |  |  | LANTUS (insulin analogue with two arginine residues added to the carboxy-terminal end of the B-chain) (ligand) chain 1: not shown chain 2: not shown |
|  |  |  | 0.01 | 4.7 | 0.008 | 4.25 | 2.7 | 3.54 | corresponding two-chain analogue (His^A8, Asp^B10, Asp^B28, Pro^B29) (ligand, Two-chain analogue lacking the linker; also called A8-His, B10-Asp, B28-Asp, B29-Pro ins; two-chain control analog) chain 1: not shown chain 2: FVNQHLCGSDLVEALYLVCGERGFFYTDPT |
